In all, about 81,000 sequences were measured (“one-hybrid fitness for binding NBS DNA”: median about -0.1, highest 2% from about 0.36 on). The list shows a part of the results.

The chains are these.
B1: Caulobacter ParB omega fusion; a variant is named by its letters at X, in order, B8GW30 (parent)
chain: MESVVVGEPGMSEGRRGLGRGLSALLGEVDAAPAQAPGEQLGGSREAPIEILQRNPDQPRRTFREEDLEDLSNSIREKGVLQPILVRPSPDTAGEYQIVAGERAWRAAQRAGLKTVPIMVRELDDLAVLEIGIIENVQRADLNVLEEALSYKVLMEKFERTQENIAQTIGKSXSHVANXMRLLXLPDEVQSYLVSGELTAXHARAIAAAADPVALAKQIIEGGLSVRETEALARKAPNLSAGKSKGGRPPRVKDTDTQALESDLSSVLGLDVSIDHRGSTGTLTITYATLEQLDDLCNRLTRGI

In this test the parent is B1. The test is described as follows: one-hybrid fitness for binding NBS DNA (the Noc-binding site; scaled: cognate 1, non-cognate 0); higher = stronger binding. Particulars: with NBS DNA site. The method, boiled down:
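The reporter was HIS3, with the binding site 19 bp from the promoter, in E. coli USO used for bacterial one-hybrid selection of Caulobacter ParB libraries with four specificity codons randomised. Growth was on M9 lacking histidine, with 0.1 mM IPTG and 5 mM 3-AT, for 48 hours at 37°C. Illumina sequencing covered plasmids before and after selection; three replicate libraries were pooled and variants with under 10 reads dropped. A fitness score is the log change in variant-to-wild-type read ratio, rescaled to the cognate and non-cognate references.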
HLLV: the “one-hybrid fitness for binding NBS DNA” value is at most 0.2.

In the case of AQDR, the “one-hybrid fitness for binding NBS DNA” value was at most 0.2. For TVKQ the value was at most 0.2; for CPCW, at most 0.2; for AVHD, at most 0.2.

FSNL: the “one-hybrid fitness for binding NBS DNA” value was at most 0.2. Consider PGKY, for which the “one-hybrid fitness for binding NBS DNA” value is at most 0.2.

Take GHCR: the “one-hybrid fitness for binding NBS DNA” value is at most 0.2.

For the variant ALYG, the “one-hybrid fitness for binding NBS DNA” value was at most 0.2. With PGRL, the “one-hybrid fitness for binding NBS DNA” value is at most 0.2. For QGVW the value was at most 0.2. For CCRF, the “one-hybrid fitness for binding NBS DNA” value is at most 0.2.

IKIA: the “one-hybrid fitness for binding NBS DNA” value is at most 0.2. Turning to VKWC, the “one-hybrid fitness for binding NBS DNA” value is at most 0.2. Regarding GLCA, the “one-hybrid fitness for binding NBS DNA” value is at most 0.2. As to WKIT, the “one-hybrid fitness for binding NBS DNA” value was at most 0.2. The figure for IWLG is at most 0.2; for INDV it is at most 0.2. Consider RFIS, for which the “one-hybrid fitness for binding NBS DNA” value was at most 0.2. In the case of LEGA, the “one-hybrid fitness for binding NBS DNA” value was at most 0.2. The figure for MRHH is at most 0.2; for ETNP it is at most 0.2. For the variant TSAR, the “one-hybrid fitness for binding NBS DNA” value is at most 0.2. For KQRD the value was at most 0.2; for NRRS, at most 0.2; for CVFS, at most 0.2. For the variant NFPV, the “one-hybrid fitness for binding NBS DNA” value is at most 0.2. MSSY: the “one-hybrid fitness for binding NBS DNA” value is at most 0.2. As for LQIK, the “one-hybrid fitness for binding NBS DNA” value is at most 0.2. Consider PHPE, for which the “one-hybrid fitness for binding NBS DNA” value was at most 0.2. Take LARL: the “one-hybrid fitness for binding NBS DNA” value was at most 0.2. The figure for TWPC is at most 0.2; for HPRE it is at most 0.2; for EKRF it is at most 0.2.

Regarding SSFM, the “one-hybrid fitness for binding NBS DNA” value is at most 0.2. Consider EASI, for which the “one-hybrid fitness for binding NBS DNA” value is at most 0.2. Regarding PMNK, the “one-hybrid fitness for binding NBS DNA” value is at most 0.2. Take VTDD: the “one-hybrid fitness for binding NBS DNA” value is at most 0.2. For the variant PSDQ, the “one-hybrid fitness for binding NBS DNA” value was at most 0.2. Consider HLKL, for which the “one-hybrid fitness for binding NBS DNA” value was at most 0.2. The figure for SNWS is at most 0.2; for YHHH it is at most 0.2.

With MWAT, the “one-hybrid fitness for binding NBS DNA” value was at most 0.2. Turning to HDDC, the “one-hybrid fitness for binding NBS DNA” value is at most 0.2. For DCES the value was at most 0.2. With ALVA, the “one-hybrid fitness for binding NBS DNA” value was at most 0.2. SKYV: the “one-hybrid fitness for binding NBS DNA” value was at most 0.2. Consider GFDR, for which the “one-hybrid fitness for binding NBS DNA” value is at most 0.2.

Consider HHHG, for which the “one-hybrid fitness for binding NBS DNA” value is at most 0.2. As for MTSQ, the “one-hybrid fitness for binding NBS DNA” value was at most 0.2.

Regarding QRHH, the “one-hybrid fitness for binding NBS DNA” value is 0.61. Regarding MPAT, the “one-hybrid fitness for binding NBS DNA” value is at most 0.2.

For the variant EAWG, the “one-hybrid fitness for binding NBS DNA” value was at most 0.2.

As to PDDG, the “one-hybrid fitness for binding NBS DNA” value was at most 0.2. For LYCG the value was at most 0.2; for DVHG, at most 0.2; for KQKT, 0.222.

In the case of PLYK, the “one-hybrid fitness for binding NBS DNA” value is at most 0.2. On to KGDV, for which the “one-hybrid fitness for binding NBS DNA” value is at most 0.2. Take GRCG: the “one-hybrid fitness for binding NBS DNA” value was at most 0.2. Consider HFDY, for which the “one-hybrid fitness for binding NBS DNA” value was at most 0.2. Take CASD: the “one-hybrid fitness for binding NBS DNA” value is at most 0.2. Take SKPW: the “one-hybrid fitness for binding NBS DNA” value was at most 0.2.

For the variant LLPD, the “one-hybrid fitness for binding NBS DNA” value was at most 0.2.

Turning to NYIV, the “one-hybrid fitness for binding NBS DNA” value is at most 0.2. As for MNGS, the “one-hybrid fitness for binding NBS DNA” value is at most 0.2. For the variant TTES, the “one-hybrid fitness for binding NBS DNA” value is at most 0.2. The figure for QMTQ is at most 0.2; for VRGC it is at most 0.2. EPSN: the “one-hybrid fitness for binding NBS DNA” value is at most 0.2. As to WPTC, the “one-hybrid fitness for binding NBS DNA” value was at most 0.2. The figure for TIRL is at most 0.2; for LYHN it is at most 0.2; for EPLG it is at most 0.2. For the variant RCIV, the “one-hybrid fitness for binding NBS DNA” value was at most 0.2. For AANF, the “one-hybrid fitness for binding NBS DNA” value was at most 0.2. Take ALFG: the “one-hybrid fitness for binding NBS DNA” value was at most 0.2. For IVVM the value was at most 0.2; for RAQA, at most 0.2; for WDKT, at most 0.2. In the case of NFVE, the “one-hybrid fitness for binding NBS DNA” value was at most 0.2. Turning to QCTN, the “one-hybrid fitness for binding NBS DNA” value is at most 0.2. On to AEGL, for which the “one-hybrid fitness for binding NBS DNA” value is at most 0.2. As for YDLV, the “one-hybrid fitness for binding NBS DNA” value is at most 0.2. For CWNR the value was at most 0.2. On to GVPR, for which the “one-hybrid fitness for binding NBS DNA” value is at most 0.2. TEGV: the “one-hybrid fitness for binding NBS DNA” value was at most 0.2. DPFG: the “one-hybrid fitness for binding NBS DNA” value was at most 0.2. For SNLS the value was at most 0.2. The figure for IFSW is at most 0.2; for HFSK it is at most 0.2. For the variant YRNT, the “one-hybrid fitness for binding NBS DNA” value is at most 0.2. Turning to ERAT, the “one-hybrid fitness for binding NBS DNA” value was at most 0.2. As for DLNR, the “one-hybrid fitness for binding NBS DNA” value was at most 0.2. In the case of QVCN, the “one-hybrid fitness for binding NBS DNA” value is at most 0.2. NTKS: the “one-hybrid fitness for binding NBS DNA” value was at most 0.2. Consider RYHN, for which the “one-hybrid fitness for binding NBS DNA” value was at most 0.2. Turning to HINP, the “one-hybrid fitness for binding NBS DNA” value was at most 0.2. As for TTAL, the “one-hybrid fitness for binding NBS DNA” value is at most 0.2. GAPF: the “one-hybrid fitness for binding NBS DNA” value was at most 0.2. MHRM: the “one-hybrid fitness for binding NBS DNA” value was at most 0.2. QDCT: the “one-hybrid fitness for binding NBS DNA” value is at most 0.2. With QRVI, the “one-hybrid fitness for binding NBS DNA” value is at most 0.2. Regarding ANQG, the “one-hybrid fitness for binding NBS DNA” value is at most 0.2. As to CNTT, the “one-hybrid fitness for binding NBS DNA” value is at most 0.2.

As for IMWC, the “one-hybrid fitness for binding NBS DNA” value is at most 0.2. As to RDGM, the “one-hybrid fitness for binding NBS DNA” value was at most 0.2.

Turning to GPML, the “one-hybrid fitness for binding NBS DNA” value was at most 0.2. ASLD: the “one-hybrid fitness for binding NBS DNA” value was at most 0.2.

For HHSF, the “one-hybrid fitness for binding NBS DNA” value was at most 0.2.

IFER: the “one-hybrid fitness for binding NBS DNA” value was at most 0.2.

Consider RIRV, for which the “one-hybrid fitness for binding NBS DNA” value is at most 0.2.

For the variant YRGY, the “one-hybrid fitness for binding NBS DNA” value was at most 0.2.

Regarding RDKH, the “one-hybrid fitness for binding NBS DNA” value is at most 0.2. For the variant FSSR, the “one-hybrid fitness for binding NBS DNA” value was at most 0.2.

Turning to VSMW, the “one-hybrid fitness for binding NBS DNA” value is at most 0.2. For HTNF the value was at most 0.2; for HTQN, at most 0.2. The figure for QNKM is at most 0.2. As to TDDG, the “one-hybrid fitness for binding NBS DNA” value was at most 0.2.

On to HHKW, for which the “one-hybrid fitness for binding NBS DNA” value was at most 0.2.

For the variant CASY, the “one-hybrid fitness for binding NBS DNA” value was at most 0.2. For QSHQ, the “one-hybrid fitness for binding NBS DNA” value is at most 0.2. Regarding TTKT, the “one-hybrid fitness for binding NBS DNA” value was at most 0.2. Turning to TTNC, the “one-hybrid fitness for binding NBS DNA” value is at most 0.2. The figure for DMCG is at most 0.2; for YLVH it is at most 0.2. In the case of SELD, the “one-hybrid fitness for binding NBS DNA” value was at most 0.2. As for PDFR, the “one-hybrid fitness for binding NBS DNA” value was at most 0.2. For CSLF, the “one-hybrid fitness for binding NBS DNA” value is at most 0.2. Turning to SSPK, the “one-hybrid fitness for binding NBS DNA” value was at most 0.2. For AAAR, the “one-hybrid fitness for binding NBS DNA” value was at most 0.2. As to KDKC, the “one-hybrid fitness for binding NBS DNA” value is at most 0.2.

As for TMLE, the “one-hybrid fitness for binding NBS DNA” value is at most 0.2. The figure for AQES is at most 0.2. In the case of TKLG, the “one-hybrid fitness for binding NBS DNA” value was at most 0.2. PKSI: the “one-hybrid fitness for binding NBS DNA” value is at most 0.2.

Take RMPF: the “one-hybrid fitness for binding NBS DNA” value is at most 0.2. Take LEQM: the “one-hybrid fitness for binding NBS DNA” value is at most 0.2. As to LHFS, the “one-hybrid fitness for binding NBS DNA” value was at most 0.2. For LAQN the value was at most 0.2.

As to WMNY, the “one-hybrid fitness for binding NBS DNA” value is at most 0.2. The figure for KRTG is at most 0.2.

For the variant FAVS, the “one-hybrid fitness for binding NBS DNA” value was at most 0.2.

With HPPW, the “one-hybrid fitness for binding NBS DNA” value is at most 0.2. Take HPRR: the “one-hybrid fitness for binding NBS DNA” value is at most 0.2. As for GRLS, the “one-hybrid fitness for binding NBS DNA” value was at most 0.2. The figure for DMFR is at most 0.2. With VGLR, the “one-hybrid fitness for binding NBS DNA” value was at most 0.2.

For the variant EMNL, the “one-hybrid fitness for binding NBS DNA” value is at most 0.2. The figure for KRGH is at most 0.2; for RHLP it is at most 0.2; for IDGW it is at most 0.2.
